{"source": "PubChem BioAssay AID651820", "about": "(National Center for Advancing Translational Sciences (NCATS), 2012)", "note": "Among all 340,000 compounds or so, about 12,000 (3.5%) were called active. The inconclusive results got no clear call from the source; some entries with a clear call stand among them for comparison. Calls come from the whole dose curve; as a rule, active = well fitted inhibition curve with a large enough effect; inconclusive = small, poorly fitted or top-dose-only effect, or another doubt; inactive = no such curve, though single readings can be large or run the other way. Potencies of inconclusive entries are left out as doubtful fits. % is set by controls: 0 for no effect and ±100 for the full control effect; potency is the fitted concentration of half-maximal effect; tags give direction and shape of the fitted curve.", "data": [{"assay": "qHTS Assay for Inhibitors of Hepatitis C Virus (HCV)", "details": "Huh7.5.1 HCVcc-Cre (HCVcc is cell-culture hepatitis C virus) infection, luciferase reporter, 44 h; activity change, negative = inhibition: at 41.8 µM (top of the series) unless noted", "procedure,_shortened": "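Compounds are dispensed onto cells plated 4 h earlier at 1,000 per well, with HCVcc-Cre virus (about 0.5 moi) added next. Following 44 h of culture, luminescent signal is measured for 15 sec after 15 min with substrate at room temperature.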", "values": [{"smiles": "COc1ccc(C(=O)COC(=O)c2c(-c3ccccc3)noc2C)c(OC)c1", "Potency": "inconclusive [inhibitor, single point]"}, {"smiles": "Cc1ccc2c(c1)C1CN(C)CCC1N2C(=O)Nc1cccc(Cl)c1", "note": "(stereo not drawn)", "Potency": "inconclusive [inhibitor, full curve]"}, {"smiles": "CCOc1ccc(CCNC(=O)COC(=O)c2sccc2C)cc1OCC", "Potency": "inconclusive [inhibitor, single point]"}, {"smiles": "Cc1cc(-c2csc(N)n2)c(C)n1Cc1ccco1", "Potency": "inconclusive [inhibitor, full curve]"}, {"smiles": "COc1ccc(NC(=O)c2c(-c3c(Cl)cccc3Cl)noc2C)c(OC)c1", "Potency": "inconclusive [inhibitor, single point]"}, {"smiles": "C=CCn1c(O)c(C(CC)=Nc2cccc(C(=O)O)c2)c(=O)[nH]c1=O", "Potency": "inactive"}, {"smiles": "CCCCOc1ccc2c(c1)C(=O)c1cc(O)ccc1-2", "Potency": "inconclusive [inhibitor, partial curve]"}, {"smiles": "N#CC1(c2ccc(NC(=O)c3ccccc3F)cc2)CCCC1", "Potency": "inconclusive [inhibitor, partial curve]"}, {"smiles": "C/C(=N\\NC(=O)c1ccccc1)c1ccc(N2CCOCC2)cc1", "Potency": "inconclusive [inhibitor, partial curve]"}, {"smiles": "COc1cc(/C=C(/C(=O)O)c2ccc(-c3ccccc3)cc2)cc(OC)c1OC", "Potency": "inactive"}, {"smiles": "Cc1ccc(C)c(NC(=O)C2CCCN2/C=C/C(=O)C(F)(F)F)c1", "note": "(stereo not drawn)", "Potency": "inconclusive [inhibitor, partial curve]"}, {"smiles": "COc1ccc(C)cc1NS(=O)(=O)c1ccc2c(c1)n(C)c(=O)n2C", "Potency": "inactive"}, {"smiles": "CCOC(=O)c1cc(CC)sc1NC(=O)COC(=O)c1ccccn1", "Potency": "inconclusive [inhibitor, single point]"}, {"smiles": "CC1(C)CC(C)(c2ccc(O)cc2O)N(c2cccc(Cl)c2)C(=S)N1", "note": "(stereo not drawn)", "Potency": "inconclusive [inhibitor, single point]"}, {"smiles": "Cc1ccc(S(=O)(=O)NCC(=O)N(c2ccccc2)C(C(=O)NCc2ccccc2)c2ccco2)cc1", "note": "(stereo not drawn)", "Potency": "inactive"}, {"smiles": "S=c1[nH]c2cc(Cl)c3cccnc3c2o1", "Potency": "inactive"}, {"smiles": "CCCCOCC1CC(CC#CCN2CCCCC2)C(=O)O1", "note": "(stereo not drawn)", "Potency": "inconclusive [inhibitor, single point]"}, {"smiles": "O=C(/C=C/NNC(=O)c1ccccc1O)c1ccccc1", "Potency": "inactive"}, {"smiles": "COc1ccc(/C=N/NC(=O)c2ccc(NC(=O)c3cccc([N+](=O)[O-])c3)cc2)c(OC)c1", "Potency": "inconclusive [inhibitor, full curve]"}, {"smiles": "CCNc1nc(NCc2ccccc2)nc(SCC(=O)Nc2ccccc2)n1", "Potency": "active: 25.1 µM"}, {"smiles": "COC(=O)C1=C(c2cccc(OCc3ccccc3)c2)C[C@@H]2CC[C@H]1N2C(=O)NCc1ccc(Cl)cc1", "Potency": "inconclusive [inhibitor, single point]"}, {"smiles": "COC(=O)c1ccccc1Sc1c(/C=N/OCc2ccc(Cl)cc2)c(C(F)(F)F)nn1C", "Potency": "inconclusive [inhibitor, partial curve]"}, {"smiles": "Cc1ccc(S(=O)(=O)NC(CC(=O)NC2CCCC2)c2ccco2)cc1", "note": "(stereo not drawn)", "Potency": "inconclusive [inhibitor, single point]"}, {"smiles": "COc1ccc(Cc2nc3c4c(ncn3n2)Oc2c(ccc3ccccc23)C4c2ccc(OC)c(OC)c2)cc1", "note": "(stereo not drawn)", "Potency": "inconclusive [inhibitor, full curve]"}, {"smiles": "O=S(=O)(c1ccccc1)c1nc(NC2CC2)sc1Cl", "Potency": "inconclusive [inhibitor, partial curve]"}, {"smiles": "COc1cc(SC)ccc1C(=O)NCCCOC(C)C", "Potency": "inconclusive [inhibitor, single point]"}, {"smiles": "CC1CCCN(S(=O)(=O)c2cc(C(=O)NCc3ccco3)ccc2Cl)C1", "note": "(stereo not drawn)", "Potency": "inconclusive [inhibitor, single point]"}, {"smiles": "COc1ccc2c(c1)CC/C(=C\\C=C\\c1ccccc1OC)C2=O", "Potency": "inconclusive [inhibitor, single point]"}, {"smiles": "COc1ccc(CCNC(=O)c2cc(-c3ccncc3)nc3c(Cl)cccc23)cc1OC", "Potency": "inconclusive [inhibitor, single point]"}, {"smiles": "Nc1ncnc2c1ccn2[C@@H]1O[C@H](CO)[C@@H](O)[C@H]1O", "Potency": "active: 35.5 µM"}, {"smiles": "O=C(c1ccc2nc[nH]c2c1)N1CCN(c2cccc(C(F)(F)F)c2)CC1", "Potency": "inconclusive [inhibitor, single point]"}, {"smiles": "CCN(c1ccccc1)S(=O)(=O)c1ccc(C(=O)Nc2nnc(COC)o2)cc1", "Potency": "inconclusive [inhibitor, single point]"}, {"smiles": "O=C(NC1=NCCS1)Nc1ccccc1", "Potency": "inactive"}, {"smiles": "COC(=O)Cc1ccc(NC(=S)N2CCN(c3cc(Cl)ccc3C)CC2)cc1", "Potency": "active: 10 µM"}, {"smiles": "CCOc1ccc(N2C(=O)CC(N)C2=O)cc1", "note": "(stereo not drawn)", "Potency": "active: 5.01 µM"}, {"smiles": "CCOC(=O)C1(CCc2ccccc2)CCN(Cc2ccc(O)cc2)CC1", "Potency": "inconclusive [inhibitor, single point]"}, {"smiles": "Cc1ccc(-n2c(C)cc(/C=N/NC(=O)c3ccc(CN4CCOCC4)cc3)c2C)cc1", "Potency": "active: 10 µM"}, {"smiles": "CCOc1ccc(OCCC(=O)OCC(=O)Nc2ccc3c(c2)OCCO3)cc1", "activity change, negative = inhibition": "inconclusive: -71.9% [inhibitor]"}, {"smiles": "C#CCOCCOCCOCCNc1nc(N2CCN(C(=O)CCCCCCCCCCNC(=O)[C@H]([C@@H](C)CC)n3cc(CCCCN=C(N)N)nn3)CC2)nc(N2CCN(C(=O)CCCCCCCCCCNC(=O)[C@H](CCCCN)n3cc(C[C@@H](C)CC)nn3)CC2)n1", "Potency": "inconclusive [inhibitor, single point]"}, {"smiles": "CC(C)CCn1nnnc1CN1CCN(C(c2ccccc2)c2ccccc2)CC1", "Potency": "inconclusive [inhibitor, single point]"}, {"smiles": "CC1Cc2nc(SCC(=O)Nc3ccc(F)cc3)n(C)c(=O)c2S1", "note": "(stereo not drawn)", "Potency": "inconclusive [inhibitor, partial curve]"}, {"smiles": "O=C(COn1nnc2ccccc21)N1CCN(Cc2ccccc2)CC1", "Potency": "inactive"}, {"smiles": "CC(C)=CCC/C(C)=C/CC/C(C)=C/COc1ccc2ccc(=O)oc2c1", "Potency": "inconclusive [inhibitor, single point]"}, {"smiles": "Cc1cccc(NS(=O)(=O)c2ccc(C(=O)NCC(c3ccco3)N3CCCCC3)cc2)c1C", "note": "(stereo not drawn)", "Potency": "inconclusive [inhibitor, single point]"}, {"smiles": "O=C(CCCc1nc(-c2ccccc2Cl)no1)NC1CCCC1", "Potency": "inactive"}, {"smiles": "CCOc1ccc(OCCSc2nnnn2-c2ccccc2)cc1", "Potency": "inactive"}, {"smiles": "COc1cccc(C2CC(c3cccs3)=NN2C(=O)CSc2nc3ccccc3s2)c1OC", "note": "(stereo not drawn)", "Potency": "inconclusive [inhibitor, single point]"}, {"smiles": "Cc1cccn2c(=O)c3cc(C(=O)NCCN4CCOCC4)c(=N)n(Cc4ccc(F)cc4)c3nc12", "Potency": "inconclusive [inhibitor, full curve]"}, {"smiles": "CCn1cc(Br)c(C(=O)Nc2ccc(Cl)c(Cl)c2)n1", "Potency": "inconclusive [inhibitor, partial curve]"}, {"smiles": "Cc1cc(C)c2[nH]c(=O)c(CN(CC3CCCO3)C(=S)Nc3ccccc3)cc2c1", "note": "(stereo not drawn)", "Potency": "inactive"}, {"smiles": "CCC(=O)/C=C1/Sc2ccc(OC)cc2N1CC", "Potency": "inconclusive [inhibitor, full curve]"}, {"smiles": "CCN(CC)CCNc1nc(-c2ccco2)c2c(c1C#N)CC(C)(C)OC2", "Potency": "inconclusive [inhibitor, single point]"}, {"smiles": "COc1cccc(-n2cc3c(c2-c2ccccc2)c(=O)n(C)c(=O)n3C)c1", "Potency": "inconclusive [inhibitor, partial curve]"}, {"smiles": "O=C(N/N=C\\C=C\\c1ccc([N+](=O)[O-])o1)c1cccs1", "Potency": "inconclusive [inhibitor, single point]"}, {"smiles": "COCCN(C(=O)COc1ccccc1C#N)c1c(N)n(Cc2ccccc2)c(=O)[nH]c1=O", "activity change, negative = inhibition": "inconclusive: -64.5% [inhibitor]"}, {"smiles": "CC(C)CC(COCc1cccc(Cl)c1)N1CCN(C(=O)c2ccc(C(F)(F)F)cc2)CCC1=O", "note": "(stereo not drawn)", "Potency": "inactive"}, {"smiles": "Cc1ccc2c(c1)N(C(=O)CCC(=O)NCCCN1CCOCC1)CC(C)O2", "note": "(stereo not drawn)", "Potency": "inactive"}, {"smiles": "CCCc1cc(C(=O)Nc2cccnc2Cl)no1", "Potency": "inactive"}, {"smiles": "Cc1ccc(N2CCN(C(=O)c3cc(-c4ccc(F)cc4)[nH]c3C)CC2C)cc1", "note": "(stereo not drawn)", "Potency": "active: 11.2 µM"}, {"smiles": "CC(C)=C[C@@H]1C[C@H](C)[C@H]2CC[C@H](C)c3c(O)c(O)c(C)c1c32", "Potency": "inconclusive [inhibitor, full curve, poor fit]"}, {"smiles": "CCC[N+](CC#Cc1ccccc1)(CCC)CC(=O)c1ccc(Cl)cc1", "Potency": "inconclusive [inhibitor, partial curve]"}, {"smiles": "COc1cc(SC)ccc1C(=O)Nc1ccc(C)cc1C", "Potency": "inconclusive [inhibitor, single point]"}, {"smiles": "Cc1ccc(-c2cc3nn(-c4ccccc4)c(N)c3c(=O)o2)cc1", "Potency": "active: 10 µM"}, {"smiles": "Cc1ccc(Nc2c(N)c(=O)oc3ccccc23)cc1", "Potency": "inconclusive [inhibitor, partial curve]"}, {"smiles": "COc1cccc(CNc2ccc(F)c(Cl)c2)c1OC", "Potency": "inactive"}, {"smiles": "COc1ccc2c(c1)C(=O)N1[C@H]3c4cc(OC)ccc4OC[C@@H]3[C@H](c3ccccc3)[C@]1(C)C(=O)N2", "Potency": "inconclusive [inhibitor, partial curve]"}, {"smiles": "CN(C(=O)COC(=O)c1cnc(Cl)c(Cl)c1)C1CCCCC1", "Potency": "inconclusive [inhibitor, single point]"}, {"smiles": "Cc1cc(C)nc(/N=C(/NC(=O)Nc2cccc(Cl)c2)Nc2ccccc2)n1", "Potency": "inconclusive [inhibitor, full curve, poor fit]"}]}]}
